From the supplement of paper PMC5499739
Whole data set: some 16,000 sequences, median “Z-score” near -0.37, cut for the highest 2% near 3.1. The list shows a part of the results.

Test system: RBM10 RRM1-ZnF-RRM2 (GST-tagged construct)
Assay: RNAcompete 7-mer binding Z-score; higher = stronger binding preference
In short: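 Bound RNA was identified by microarray hybridisation after GST-tagged RBM10 constructs (20 pmol) had been mixed with 1.5 nmol of a designed pool of 241 399 RNAs up to 41 nt, transcribed from microarray-derived DNA templates. Binding ran for 30 min at 4°C in 1 ml Hepes pH 7.8 buffer with KCl, NaCl, glycerol, DTT, BSA and glutathione Sepharose beads, with four 2-min washes at 4°C afterwards. For every heptamer motif, a one-sided Z-score for enrichment was computed across the probes that contained it.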

Row | Sequence | RNAcompete 7-mer binding Z-score
1 | UUCAGCG | -0.5
2 | GAGGUCG | 1.32
3 | UUGUAGC | -0.624
4 | GAAGCAU | 0.228
5 | GUCCUAA | -0.588
6 | CAUUUUG | -0.959
7 | GGCCUUU | -0.708
8 | AGACUUC | -0.963
9 | CGUCGGU | 0.0714
10 | UUGAAGC | -0.249
11 | AACUAAU | -0.57
12 | CACCGCA | -0.694
13 | CAUGACU | -0.679
14 | GAAGGUC | 1.25
15 | UAGAAUG | 0.716
16 | CAGCUAG | -0.231
17 | CGGCCUC | -0.683
18 | CAGAUCU | -0.723
19 | AGAGGUG | 2.05
20 | CAAGCGG | 0.945
21 | GAUCAUC | -0.708
22 | AUGCUGC | -0.599
23 | AGAAGCG | 0.399

Row | Sequence | RNAcompete 7-mer binding Z-score
24 | GGUACUU | 0.264
25 | UUUCUCG | -0.734
26 | CCAUAUC | -0.694
27 | UAAUCUA | -0.526
28 | CCGAGGC | 0.0568
29 | UGUAUGA | -0.122
30 | AUCCUAC | -0.785
31 | AGUAGUA | 0.297
32 | CCGCCUA | -0.748
33 | CAAAAGG | 1.19
34 | AUGUGGC | 0.84
35 | CUGCGGG | 1.23
36 | GGGGCAC | 2.17
37 | UAUGCCC | -0.755
38 | CCGGAGA | 0.319
39 | UCCUGCC | -0.905
40 | AAACGUA | -0.0925
41 | GGCGGGC | 1.97
42 | CGGAACC | 0.00944
43 | CCCGCCU | -0.843
44 | UAAACAG | -0.0379
45 | CCAAGUC | -0.664
46 | GAUAAGA | 0.64

Row | Sequence | RNAcompete 7-mer binding Z-score
47 | CUCAAGA | -0.763
48 | GAACCAG | -0.0525
49 | GUAAAUG | 0.774
50 | CACGCUA | -0.679
51 | UGUACAG | 0.519
52 | AUGACGG | 1.41
53 | GGGAUUU | 1.43
54 | UCUACUG | -0.694
55 | UGAUAUG | 0.243
56 | CCUAGAC | -0.839
57 | UCCCCGC | -0.624
58 | UCAUUCA | -0.675
59 | CAGCGGC | 0.246
60 | GGACUCG | 0.0859
61 | UUGGUCC | -0.628
62 | AAGGCAU | 1.32
63 | GGGUGUG | 3.51
64 | ACGCGGG | 1.81
65 | CGCGGUG | 0.986
66 | AUGAGAA | 0.574
67 | UGAAAAU | -0.278
68 | CAGAAUU | -0.351
69 | ACGGGGC | 2.37

Row | Sequence | RNAcompete 7-mer binding Z-score
70 | UAAGAAA | -0.238
71 | AUGAGGC | 1.35
72 | GACCCAU | -1.03
73 | UGGUCUA | 0.0823
74 | UACGCUC | -0.526
75 | CCUCACG | -0.806
76 | AAGAGAC | 0.141
77 | GGCUCGA | 0.0386
78 | AGGGUCU | 0.559
79 | UUUUGGC | -0.417
80 | CCAGUCA | -0.511
81 | UUGGUGA | 1.39
82 | ACAGGUA | 2.6
83 | GGUAUAG | 1.99
84 | UUUAGAG | 0.0786
85 | UGAAGAU | -0.00877
86 | CCAGGUU | 0.0349
87 | UGACGUA | -0.0124
88 | AUAUGAA | 0.0677
89 | GUAGCCA | 0.283
90 | GUACGGC | 0.396
91 | CCAAAUU | -0.759
92 | UCUACUU | -0.912

Row | Sequence | RNAcompete 7-mer binding Z-score
93 | GGCGCCA | -0.187
94 | CGGUCCG | -0.522
95 | AGUUGGC | 0.687
96 | GAUUGAC | -0.158
97 | CGCCUUU | -0.967
98 | ACUAACU | -0.839
99 | AGUCCUA | -0.632
100 | GGCUCUC | -0.522
101 | UCUCUGG | -0.595
102 | AUACAGG | 1.37
103 | GGUAACU | 0.396
104 | AGGCUUC | -0.606
105 | CUGAAUA | -0.584
106 | CACAGGG | 2.49
107 | CUUCUGA | -0.766
108 | AUCGAUA | -0.184
109 | UCAUCGC | -0.865
110 | CCGUGCC | -0.777
111 | AUUGCGG | 0.541
112 | AUAUAGC | -0.293
113 | CGCUGCU | -0.566
114 | UUACGUA | -0.435
115 | UAAUCGU | -0.5

Row | Sequence | RNAcompete 7-mer binding Z-score
116 | AAUUAUA | -0.435
117 | UCCCCGG | -0.479
118 | GCAUUGU | -0.369
119 | AAUGCUA | -0.442
120 | GUACGUC | -0.388
121 | GAAGCGU | 0.534
122 | AGCUCGU | -0.391
123 | ACCCUUC | -0.945
124 | UUGCUCG | -0.708
125 | AAGCUUG | -0.581
126 | ACGGAAU | 1.22
127 | UGAUUGA | 0.00216
128 | CAUACCC | -0.719
129 | CGCGGGG | 2.32
130 | CUUCGUG | -0.551
131 | AGUCUAC | -0.431
132 | GGUGGUA | 2.86
133 | ACCGAGG | 0.778
134 | CCCUAGA | -0.876
135 | GCCCGUA | -0.781
136 | GUAUCGU | -0.238
137 | GUUGUAG | 0.898
138 | CAACCCC | -0.592

Row | Sequence | RNAcompete 7-mer binding Z-score
139 | AUGAAGA | 0.392
140 | GAACGCU | -0.544
141 | GCAGAUA | 0.104
142 | CUCAAUU | -0.777
143 | AAUCUUG | -0.777
144 | AAGCAAG | 0.803
145 | ACUCUGG | -0.657
146 | UCUUGUG | -0.766
147 | UGAAAAA | -0.347
148 | CUGGGGA | 1.32
149 | UCGCGUU | -0.602
150 | UUGACUG | -0.475
151 | UAUUGUU | -0.643
152 | UAGCCGG | -0.406
153 | GGGAAUC | 1.98
154 | AUUAGUG | 0.589
155 | CGACGGG | 2.14
156 | AAUCAUU | -0.471
157 | UCAGCUA | -0.646
158 | CGUUAUU | -0.694
159 | ACGCCCG | -0.737
160 | CAGUUAU | -0.511
161 | UCCCUCA | -0.712

Row | Sequence | RNAcompete 7-mer binding Z-score
162 | AUUGGAU | 0.876
163 | UCGAGGG | 1.93
164 | CAUAUCG | -0.559
165 | GGGGCUG | 2.09
166 | CCACUAA | -0.89
167 | GCGACCC | -0.624
168 | AAGGUUG | 3.13
169 | GCCGCGA | -0.326
170 | AACAUUU | -0.785
171 | CGAUCAU | -0.555
172 | CGACUAU | -0.832
173 | GCUGGUC | -0.0561
174 | GACCGGG | 1.36
175 | ACGCUGA | -0.497
176 | GCUACAA | -0.318
177 | UUAGCCC | -0.883
178 | GCCCACA | -0.744
179 | GUUGUCG | -0.216
180 | UCGUGGA | 1.05
181 | GGAACAG | 2.44
182 | CUUGAUA | -0.785
183 | CAUUAUU | -0.744
184 | CUUUGUA | -0.839
